Data on 83 compounds can be found in PubChem BioAssay (NCI).

“And” between values parts separate entries of the source, which are not always exact repeats. Identical values can stand only once.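 96-well plates; 48 h exposure; 5 concentrations. Endpoints by linear interpolation between flanking doses. Not reached: highest tested concentration assigned. The concentration for 50% growth inhibition is given as GI50. TGI marks complete inhibition of growth.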

The term TGI denotes the concentration giving total growth inhibition. Usually GI50 stands for the concentration that inhibits growth by half.

In the experiment the test system is NCI-H322M lung. The experiment can be described thus: DTP human tumour cell line panel, 48 h.
`CSC(=N/C=C/c1ccccc1)SC` showed a TGI of over 100 µM.

Turning to `CCN(CC)c1ccc2cc(C(N)=O)c(=N)oc2c1`, the TGI was over 100 µM.

`COc1cc(NC(C)c2ccc3c(c2)OCCO3)cc(OC)c1OC` (configuration not stated) returned a TGI of over 100 µM.

On to `Cc1cnc(NC(=O)C(Cc2ccccc2)NC(=O)c2ccccc2)s1` (configuration not stated), for which the GI50 is 23.5 µM and the TGI amounted to 75.1 µM.

For `C=CC[C@H]1O[Si](C(C)(C)C)(C(C)(C)C)[C@H](C)[C@H]1C`, the TGI was over 100 µM.

With `O=C1C=Cc2c(Br)sc(Br)c21`, the TGI stood at 77.7 µM.

The compound `CCOC(=O)c1ncn2c1[nH]c(=S)c1ccccc12` had a TGI of over 100 µM.

Turning to `Cc1cc(=O)[nH]c2cc3oc4ccccc4c3cc12`, the TGI is over 100 µM.

On to `CC(=O)[O][Hg][c]1c(N)c(C)cc(C)c1F`, for which the GI50 is 9.13 µM and the TGI is 22.7 µM.

As for `C=C1C(=O)[C@@]23CC[C@H]4[C@@](C)(CCC[C@@]4(C)C(=O)OC)[C@@H]2CC[C@]1(O)C3`, the GI50 was 12.7 µM; the TGI is 26.3 µM and 3.23 µM.

Regarding `Cn1ccnc1C(=O)/C=C/c1ccc(CC(=O)Nc2ccc(Br)cc2)cc1`, the GI50 is 2.21 µM and the TGI was 5.45 µM.

`FC(F)(F)c1ccc(C2SCc3nc4ccccc4n32)cc1` (configuration not stated) displayed a TGI of over 100 µM.

The compound `O=C1c2ccccc2C(=O)c2sc(Nc3cccc(Cl)c3)nc21` had a TGI of 4.87 µM.

`CC1=NN(c2nc(N)nc(/C(C#N)=C/c3ccccc3O)n2)C(C)(C)C1` displayed a TGI of 48.1 µM.

On to `Cc1nnc2n1N=C(c1ccccc1)/C(=C/c1ccc(-c3ccc(Cl)cc3)o1)S2`, for which the TGI stood at 38.9 µM.

Regarding `CSC1=C(C#N)C(=S)N=C(N)C1C(=O)Nc1ccc(C)cc1` (configuration not stated), the TGI was over 100 µM.

`C/C(CCn1[nH]c(=O)ccc1=O)=N\O` registered a TGI of over 100 µM.

`CS(=O)(=O)OCCCCOS(=O)(=O)CF` registered a TGI of over 100 µM.

Turning to `C[C@@H](CS(C)(=O)=O)Nc1ncc2cc(Oc3ccc(F)cc3F)c(=O)n(C)c2n1`, the GI50 is over 25 µM and the TGI is over 25 µM.

Consider `O=C(Nc1ccc(F)cc1F)c1cc(I)ccc1O`, for which the GI50 was 3.13 µM and the TGI was 60.4 µM.

Consider `COC(=O)Nc1nc2ccc(S(=O)c3ccccc3)cc2[nH]1` (configuration not stated), for which the GI50 was over 100 µM and the TGI is over 100 µM.

Consider `CC1=C(C#N)C23C(=O)c4ccccc4C(O)=C2C(=O)C=CC3(O)N1Cc1ccccc1` (configuration not stated), for which the GI50 was 49.2 µM and the TGI is over 100 µM.

The compound `CC1OC(OC2C(OC(=O)[C@]34CCC(C)(C)C[C@H]3C3=CC[C@@H]5[C@@]6(C)CC[C@H](OC7OC(C(=O)O)C(O)C(O)C7O)C(C)(C)[C@@H]6CC[C@@]5(C)[C@]3(C)C[C@H]4O)OCC(O)C2O)C(O)C(O)C1OC1OCC(OC2OCC(O)C(O)C2O)C(O)C1O` (some centres not stated) had a TGI of 8.06 µM.

As to `CSc1ccccc1C#C/C=C\C#Cc1ccccc1N1CCCC1=O`, the GI50 was over 39.5 µM and the TGI is over 50 µM.

On to `O=C1c2cccnc2-c2nc(-c3ccccc3[N+](=O)[O-])cc3c2c1nc1ccccc13`, for which the GI50 was 15.8 µM and the TGI worked out at 51.4 µM.

Turning to `CCOC(=O)Nc1nc2ccc(OCC)cc2s1`, the GI50 was over 100 µM and the TGI is over 100 µM.

On to `O=C(/C=C/c1ccccc1Cl)c1ccc(Cl)c(Cl)c1`, for which the TGI is over 100 µM.

As to `COc1c2c(cc3c1C(=O)c1c(O)cccc1C3=O)CC(O)CC2` (configuration not stated), the TGI was over 100 µM.

With `Oc1ccc(Cl)cc1-c1cc(-c2ccccc2Cl)[nH]n1`, the GI50 is 21.3 µM and the concentration for total growth inhibition (TGI) was over 100 µM.

`CN(C)CCNc1ccc([N+](=O)[O-])c2sc3ccccc3c(=O)c12` had a TGI of 29.6 µM.

Compound `C=CCc1cc(OC)c2c(c1)C(O)CC(c1ccc(OC)c(OC)c1)O2` (configuration not stated) returned a TGI of over 100 µM.

The compound `CN(CC(=O)O)S(=O)(=O)c1ccc2ccccc2c1` returned a TGI of over 100 µM.

In turn, `Cc1cccc2oc3c(CC(=O)O)cccc3c(=O)c12` returned a TGI of over 100 µM.

Consider `CCNC1C2(CCCCC2)NC(=O)C12CCCCC2` (configuration not stated), for which the TGI was over 100 µM.

`Cc1ccc(Cc2n[nH]c(=O)[nH]2)cc1` returned a TGI of over 100 µM.

As for `CC1(C)OC(=O)C(=Cc2ccc(O)cc2)C(=O)O1`, the TGI was over 100 µM.

For the compound `Cc1sc(Nc2ccc(Nc3nc(-c4ccccc4)c(C)s3)cc2)nc1-c1ccccc1`, the TGI is over 100 µM.

In the case of `COC(=O)[C@@]12C3=NO[C@]1(C(=O)OC)C(O[Si](C)(C)C(C)(C)C)[C@H]1OC(C)(C)O[C@H]1[C@@H]2C(OCc1ccccc1)CC3` (some centres not stated), the TGI was over 100 µM.

Consider `Cc1ccc(N=N/C(=N/NC(=O)c2cc(Cl)ccc2O)c2ccc(N(CCC#N)CCC#N)cc2C)cc1`, for which the TGI was over 100 µM.

`CC(C)=C1C(=O)C[C@]2(C)C[C@H]3O[C@]3(C)CC[C@@H]3O[C@@]3(C)CC[C@@H]12`: the TGI is over 50 µM.

`Nc1ccc(C(=O)N/C(=C\c2ccc3c(c2)OCO3)c2nc3[nH]c(=S)[nH]c(=O)c3[nH]2)cc1` gave a concentration for total growth inhibition (TGI) of over 100 µM.

`O=C1NC2(CCCCC2)C2CCCCC(O)C12` (configuration not stated): the TGI is over 100 µM.

As for `COc1ccc(-n2/c(=N/C(=S)N(C)C)ss/c2=N\C(=S)N(C)C)cc1`, the concentration for total growth inhibition (TGI) is over 100 µM.

For `NC(CCCCCCCCCCP(=O)(O)O)C(=O)O` (configuration not stated), the TGI is over 100 µM.

In turn, `CN(Cc1cnc2nc(N)nc(N)c2n1)c1ccc(C(=O)NCCS(=O)(=O)O)cc1` showed a TGI of over 100 µM.

Consider `COc1cc(C(=O)/C=C/c2sc(Cl)nc2Cl)cc(OC)c1OC`, for which the GI50 is 1.76 µM and the TGI is 3.98 µM.

For the compound `O=C(NC(=S)Nc1ccc(Br)cc1)c1ccc2c(c1)Sc1ccccc1S2`, the concentration for total growth inhibition (TGI) came to 37.2 µM.

For the compound `O=c1ccn([C@@H]2C[C@H]2CO)c(=O)[nH]1`, the TGI was over 100 µM.

`CC(=O)NC1=C(NCC(C)(C)C)C(=O)c2ccccc2C1=O` yielded a TGI of over 100 µM.

Compound `C[N+](C)(CCCn1ccnc1[N+](=O)[O-])CCCn1ccnc1[N+](=O)[O-]` returned a TGI of over 100 µM.

Consider `CC(C)c1ccc(C(C)C(=O)N(CC2=C(C(C)c3ccccn3)c3ccccc3C2)C(C)C)cc1` (configuration not stated), for which the GI50 is 5.54 µM and the TGI is over 100 µM.

As for `CN(C)c1ccc(C2CC(c3ccc4ccccc4c3O)=NN2)cc1` (configuration not stated), the TGI was over 100 µM.

Turning to `Nc1cc2nc3ccccc3sc-2cc1=O`, the GI50 was 3.84 µM and the TGI was found to be 14.9 µM.

In turn, `C/C(=C\CO)CC/C=C(\C)CNc1c(F)c(F)c(F)c(F)c1F` registered a TGI of 63.2 µM.

For `CC1(C)COC(c2ccc(C(F)(F)F)cc2C(O)c2ccc3ccccc3c2)=N1` (configuration not stated), the GI50 was over 100 µM and the TGI is over 100 µM.

Compound `CC1(C)CCc2ccc(OCCC(=O)O)cc2O1` had a TGI of over 100 µM.

Consider `O=C(CSC(=S)N1CCCCC1)Nc1nc2c(s1)CCCC2`, for which the TGI is over 100 µM.

Regarding `CCCCCCCCSC1=CC(=O)c2nc3ccccc3c3ccnc1c23`, the GI50 is over 100 µM and the TGI is over 100 µM.

`COc1cccc2c1C(=O)C1=C(C2=O)C(O)CC(C)(C)O1` (configuration not stated) came in with a TGI of over 100 µM.

The compound `Cn1c2ccc([N+](=O)[O-])cc2c(=O)n1Cc1ccccc1F` gave a TGI of over 100 µM.

Turning to `CN(C)c1ccc(-c2cc(-c3ccc(Nc4nc(Nc5ccc(Cl)cc5)nc(Nc5ccc(Cl)cc5)n4)cc3)no2)cc1`, the GI50 was 13.9 µM and the TGI is over 100 µM.

`S=C(N1CCN(c2ccc(Cl)c(Cl)c2)CC1)N1CCN(c2ccc(Cl)c(Cl)c2)CC1` yielded a TGI of 25.6 µM. This counts as double-digit micromolar.

The compound `O=C(O)CCC(NC(=O)c1ccc(OCc2nc3cc(C(F)(F)F)ccc3nc2-c2ccccc2)cc1)C(=O)O` (configuration not stated) showed a TGI of over 100 µM.

For the compound `COc1ccc(-c2cc(-c3ccc(Nc4nc(Nc5ccccc5)nc(Nc5ccc(Cl)cc5)n4)cc3)nc(N)c2C#N)cc1`, the GI50 was 2.26 µM and the TGI was over 50 µM.

Consider `O=C(OCc1ccccc1)N(CCCCN(CCCNC(=O)C(F)(F)F)C(=O)OCc1ccccc1)CCCNC(=O)C(F)(F)F`, for which the TGI was over 100 µM.

Regarding `C=C1C[C@@H]2CC[C@@]34CC5O[C@H]6C(O[C@H]7CC[C@H](CC(=O)O[C@@H]8[C@@H](C)[C@@H]9O[C@@H]%10C[C@]%11(C[C@@H]%12O[C@]%13(C[C@H](C)[C@@H]%14O[C@@H]%15CC(C(O)CO)O[C@@H]%15C[C@@H]%14O%13)C[C@H](C)[C@@H]%12O%11)O[C@@H]%10C[C@@H]9O[C@H]8CC8O[C@@H](CC[C@@H]1O2)C[C@@H](C)C8(O)CO)O[C@@H]7[C@@H]6O3)[C@H]5O4` (some centres not stated), the TGI is over 1 µM.

Take `CCOC(=O)COc1cccc2c1C(=O)CCO2`: the TGI was over 100 µM.

As for `COc1ccc(NC(=S)Nc2cc(C)cc(C)n2)cc1`, the TGI is over 100 µM.

`CC1=C(C(=O)OCCO[N+](=O)[O-])C(c2cccc([N+](=O)[O-])c2)C(C(=O)OC(C)C)=C(C)N1` (configuration not stated) returned a total growth inhibition concentration (TGI) of 54.4 µM. This lies in the double-digit micromolar range.

Turning to `CN(C)CCCNC1=C(Cl)C(=O)c2ccccc2C1=O`, the GI50 is 6.22 µM and the concentration for total growth inhibition (TGI) was 15.5 µM.

`NC(N)=N/N=C/c1c(-c2ccc(Cl)c([N+](=O)[O-])c2)nc2sc(Cl)cn12` yielded a total growth inhibition concentration (TGI) of 7.36 µM. That is a single-digit micromolar value.

In the case of `Fc1ccc(Nc2ncnc3ccc(-c4cnc5[nH]ccc5c4)cc23)cc1Cl`, the GI50 is 0.242 µM and the TGI was 5.92 µM.

Take `O=C1N(Cl)C(=O)C(c2ccc(Cl)cc2)(c2ccc(Cl)cc2)N1Cl`: the concentration for total growth inhibition (TGI) is over 100 µM.

As to `Cc1c2n(c(=O)[nH]c1=O)C1OC(CO)C(O2)C1N=[N+]=[N-]` (configuration not stated), the TGI was over 100 µM.

`CCCCCCCC(=O)SCC/C=C/[C@@H]1CC(=O)NCc2cccc(n2)C2=N[C@@](C)(CS2)C(=O)N[C@@H](C(C)C)C(=O)N1`: the GI50 was 0.797 µM and the TGI is over 33.3 µM.

`O=[N+]([O-])C(=C(Cl)Cl)C(Cl)=C(Cl)Cl` came in with a TGI of 10.5 µM. In other words, the double-digit micromolar range.

As for `c1ccc(C(C2=Nc3cccc4cccc(c34)N2)c2ccccc2)cc1`, the TGI was determined as 76.8 µM.

The compound `Cn1c(=O)c2c3ccccc3n(C)c2n(C)c1=O` came in with a TGI of over 100 µM.

Turning to `COc1cc2c(c(OC)c1O)C(=O)C(OC)C(c1ccc(O)c(O)c1)O2` (configuration not stated), the GI50 was 0.742 µM and the TGI was over 100 µM.

For `COc1cc(-c2ccc(Br)[nH]2)[nH]c1C=NCC(C)C`, the TGI was 15.7 µM.

In the case of `COc1cc(/C=C/c2cc(/C=C/c3ccc(O)c(OC)c3)n(C(=O)Nc3ccc(F)cc3)n2)ccc1O`, the GI50 was 2.34 µM and the TGI is 14.8 µM.

Take `COc1cc2c(cc1OC)[C@@H]1[C@H](C#N)C(=O)C(C)(C)N1CC2`: the TGI was over 100 µM.

As for `Cc1ccc(-c2nnc(-c3ccc4ccccc4c3)o2)cc1`, the total growth inhibition concentration (TGI) was over 100 µM.
